Experimental data: PMC4336329 (PLoS ONE, 2015)
The whole screen tested about 310,000 compounds, of which about 14,000 (4.5%) showed an effect of 50% or more. Effects have a minus sign here. The list shows a part of the results.

What follows are compounds tested against human ether-à-go-go-related gene (hERG) potassium channel (human, UniProt Q12809) (assay: primary screen, population patch clamp on CHO cells stably expressing hERG).
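Also: peak tail current of the secondary pulse compared with the same well before compound.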

Sequence of human ether-à-go-go-related gene (hERG) potassium channel (Q12809 whole entry, looked up): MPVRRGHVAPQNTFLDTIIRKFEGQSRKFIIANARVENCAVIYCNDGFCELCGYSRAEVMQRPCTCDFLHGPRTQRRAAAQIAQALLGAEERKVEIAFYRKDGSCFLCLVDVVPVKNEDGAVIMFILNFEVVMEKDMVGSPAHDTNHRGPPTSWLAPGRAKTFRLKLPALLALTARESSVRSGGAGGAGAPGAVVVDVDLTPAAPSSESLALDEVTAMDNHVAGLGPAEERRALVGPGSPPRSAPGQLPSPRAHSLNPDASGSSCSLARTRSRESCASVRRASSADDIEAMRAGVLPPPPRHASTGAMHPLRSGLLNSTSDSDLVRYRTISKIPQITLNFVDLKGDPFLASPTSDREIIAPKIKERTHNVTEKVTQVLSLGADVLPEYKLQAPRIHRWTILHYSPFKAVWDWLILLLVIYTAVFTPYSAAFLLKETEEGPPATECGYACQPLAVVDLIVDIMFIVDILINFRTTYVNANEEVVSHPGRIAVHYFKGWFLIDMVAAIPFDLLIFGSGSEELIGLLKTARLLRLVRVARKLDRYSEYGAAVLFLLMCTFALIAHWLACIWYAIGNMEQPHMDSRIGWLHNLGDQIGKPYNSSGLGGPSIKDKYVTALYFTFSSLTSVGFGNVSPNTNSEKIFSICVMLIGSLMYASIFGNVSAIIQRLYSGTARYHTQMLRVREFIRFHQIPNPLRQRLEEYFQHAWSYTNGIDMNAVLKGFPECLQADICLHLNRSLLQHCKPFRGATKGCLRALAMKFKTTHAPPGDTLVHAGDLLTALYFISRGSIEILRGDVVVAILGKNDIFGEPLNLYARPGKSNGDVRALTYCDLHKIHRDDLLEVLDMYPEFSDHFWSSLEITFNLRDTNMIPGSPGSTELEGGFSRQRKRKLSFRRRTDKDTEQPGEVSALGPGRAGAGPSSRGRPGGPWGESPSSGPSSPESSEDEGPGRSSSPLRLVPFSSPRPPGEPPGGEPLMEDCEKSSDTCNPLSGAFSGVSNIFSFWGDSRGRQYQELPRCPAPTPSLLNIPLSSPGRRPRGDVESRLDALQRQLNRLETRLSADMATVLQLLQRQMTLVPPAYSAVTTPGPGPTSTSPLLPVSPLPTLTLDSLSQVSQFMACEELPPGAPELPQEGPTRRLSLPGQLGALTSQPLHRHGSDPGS

First: CCCCn1c(CN2CCN(c3cccc(Cl)c3)CC2)nc2c1c(=O)[nH]c(=O)n2C
Second: O=C(c1cc(-c2ccc(Cl)cc2)on1)N1CCN(c2ccccc2)CC1
The “hERG current change (%, negative = inhibition) at 10uM” value of the first is higher: 5.59% for the first, 3.5% for the second.

Compared with O=C(NC(c1ccc(Cl)cc1)c1c(O)ccc2ccccc12)c1ccccc1 (stereo not shown), Oc1ccc2ccccc2c1CNc1ccccn1 is higher in “hERG current change (%, negative = inhibition) at 10uM” value: 3.91% for the first, 23.6% for the second.

Compared with CCN1CC2=C(OC(N)=C(C#N)C2c2cccs2)/C(=C/c2cccs2)C1 (stereo not shown), CCOC(=O)C1CCCN(c2oc(-c3ccc(F)cc3)nc2C#N)C1 (stereo not shown) is lower in “hERG current change (%, negative = inhibition) at 10uM” value: -20.5% for the first, -43.9% for the second.

Compared with O=C(NC(Cc1ccccc1)C(=O)O)/C(=C/c1ccccc1)NC(=O)c1ccccc1 (stereo not shown), CC(C)(C)c1ccc(C(CC(=O)O)NC(=O)CCCc2ccccc2)cc1 (stereo not shown) is lower in “hERG current change (%, negative = inhibition) at 10uM” value: 12% for the first, 4.13% for the second.

Compared with COc1ccc(NC(=O)C2CCN(c3cc(C)nc(-c4ccccc4)n3)CC2)cc1, O=C(Nc1cccc([N+](=O)[O-])c1)C1CCN(C(=O)Cc2ccccc2)CC1 is lower in “hERG current change (%, negative = inhibition) at 10uM” value: -31.5% for the first, -43.3% for the second.

Going from O=C(Nc1cccc(S(=O)(=O)N2CCOCC2)c1)c1cn(-c2ccccc2)nc1-c1ccc(F)cc1 to CN(C(=O)C1CCN(S(=O)(=O)c2ccccc2)CC1)c1c(N)n(Cc2ccccc2)c(=O)[nH]c1=O, the “hERG current change (%, negative = inhibition) at 10uM” value rises from -3.59% to 20.8%.

Going from CC(/C=C\c1cccnc1)=C/C(=O)[O-].[Na+] to O=C(c1cccnc1)c1cccnc1, the “hERG current change (%, negative = inhibition) at 10uM” value rises from 7.39% to 9.11%.

Compared with COC(=O)c1c(NC(=O)CSc2ncnc3[nH]ncc23)sc2c1CCC2, CCc1nnc(NC(=O)CSc2nccn2-c2cccc(C)c2C)s1 is lower in “hERG current change (%, negative = inhibition) at 10uM” value: 21.9% for the first, 14.6% for the second.

Compared with CCN(C(=O)c1ccc(S(=O)(=O)N2CCC(C)CC2)cc1)C1CCS(=O)(=O)C1 (stereo not shown), CN(C)S(=O)(=O)N1CCN(S(=O)(=O)c2ccccc2)CC1 is lower in “hERG current change (%, negative = inhibition) at 10uM” value: 7.87% for the first, 6.96% for the second.

First: Cc1cc(C)nc(CC(N)=O)n1
Second: Cc1ccnc(NC(=O)c2cccc(OC(F)F)c2)n1
The “hERG current change (%, negative = inhibition) at 10uM” value of the first is lower: -4.7% for the first, 4.47% for the second.

Going from CCCN1CC(C)C(OC(C)=O)(c2ccccc2)CC1C.Cl (stereo not shown) to CC1=C(C/C(C)=C/c2ccccc2)/C(=C/CO)[C@H](O)[C@](C)(O)C12CC2, the “hERG current change (%, negative = inhibition) at 10uM” value rises from 0.16% to 11.3%.

Compared with CCOC(=O)c1nnn(-c2nonc2N)c1CNC(C)C, C/C(=N\NC(=O)c1nnn(-c2nonc2N)c1CN(C)c1ccccc1)c1cccc(O)c1 is higher in “hERG current change (%, negative = inhibition) at 10uM” value: -14.2% for the first, 9.64% for the second.

Going from CCOc1ccccc1NC(=O)C(CC)Sc1nc2ccsc2c(=O)n1CCC(=O)O (stereo not shown) to CCOC(=O)c1csc(NC(=O)c2ccccc2)n1, the “hERG current change (%, negative = inhibition) at 10uM” value falls from 15% to -8.86%.

Going from O=C(CCCOc1ccc(Cl)cc1Cl)NCCCO to Cc1ccc(C(=O)COC(=O)CCC(=O)Nc2cc(Cl)ccc2Cl)cc1[N+](=O)[O-], the “hERG current change (%, negative = inhibition) at 10uM” value rises from -11.5% to 9.06%.

Compared with COc1cc(CNCc2ccncc2)cc(OC)c1OC.Cl, COc1ccc(CCNC(=O)CCN2C(=O)COc3ccc(C)cc32)cc1OC is lower in “hERG current change (%, negative = inhibition) at 10uM” value: 18.4% for the first, -17% for the second.

Going from O=C(N1CCN=C1SCc1cccnc1)C12CC3CC(CC(C3)C1)C2 to NC(=O)COC(=O)C12CC3CC(CC(O)(C3)C1)C2, the “hERG current change (%, negative = inhibition) at 10uM” value rises from -15.8% to 5.8%.

Going from CCCC(=O)Nc1ccc(NC(=O)c2ccco2)c(OC)c1 to COc1ccc(NC(=O)CSc2ccc3nnc(CCNC(=O)c4ccccc4)n3n2)cc1OC, the “hERG current change (%, negative = inhibition) at 10uM” value rises from 1.21% to 6.74%.

First: O=C(NCCN1CCOCC1)c1cc2sccc2n1Cc1ccc(F)cc1
Second: O=C(NCCS(=O)(=O)N1CCN(c2ccccc2F)CC1)c1c(F)cccc1F
The “hERG current change (%, negative = inhibition) at 10uM” value of the first is lower: -47% for the first, -13% for the second.

Compared with Cc1ccccc1NS(=O)(=O)c1ccc(Cl)cc1, O=S(=O)(Nc1nc2ccccc2nc1NCC1CCCO1)c1ccccc1 (stereo not shown) is higher in “hERG current change (%, negative = inhibition) at 10uM” value: -11.4% for the first, 2.43% for the second.

First: O=S(=O)(c1ccccc1)N(CC(O)Cn1c2ccccc2c2ccccc21)c1ccccc1 (stereo not shown)
Second: O=C(CN(Cc1ccc2c(c1)OCO2)C(=O)CNS(=O)(=O)c1ccccc1)NCc1ccco1
The “hERG current change (%, negative = inhibition) at 10uM” value of the first is higher: 14.9% for the first, -22% for the second.

Going from CC1CCCC(C)N1C(=O)c1cc(-c2cccs2)on1 (stereo not shown) to Cc1nnc(SCc2ccccc2Cl)n1CC1CCCO1 (stereo not shown), the “hERG current change (%, negative = inhibition) at 10uM” value rises from -16.3% to -3.19%.

Going from COc1ccc(OC)c(NC(=O)COC(=O)/C=C/c2c(C)nn(C3CCS(=O)(=O)C3)c2Cl)c1 (stereo not shown) to Cn1c(=O)c2c(ncn2CC(=O)OCC(=O)NC2CCCc3ccccc32)n(C)c1=O (stereo not shown), the “hERG current change (%, negative = inhibition) at 10uM” value rises from 1.74% to 2.36%.

Compared with CC(=O)Nc1ccc(C(=O)OCc2ccc(F)cc2Cl)cc1, O=C(COC(=O)c1ccc(Cl)c([N+](=O)[O-])c1)Nc1ccccc1OC(F)F is lower in “hERG current change (%, negative = inhibition) at 10uM” value: 29.3% for the first, 16.9% for the second.

Compared with COc1ccc(C(NC(=O)C(C)C)c2ccc3cccnc3c2O)cc1 (stereo not shown), CNc1nc2c(C)cccn2c(=O)c1C=Nc1ccc(OC)cc1 is higher in “hERG current change (%, negative = inhibition) at 10uM” value: -9.24% for the first, 11.8% for the second.

Compared with COc1ccc(N2CC(O)(c3ccc(F)cc3)[N+]3=C2CCCC3)cc1.[Br-] (stereo not shown), COc1ccc(NC2=CC(c3ccc(OC)cc3)N(c3ccc(OC)cc3)C2=O)cc1 (stereo not shown) is higher in “hERG current change (%, negative = inhibition) at 10uM” value: -3.37% for the first, 25.2% for the second.

Going from CC(Sc1ccc(Cl)cc1)C(=O)NCc1ccc2c(c1)OCO2 (stereo not shown) to c1ccc(Cn2nnc3c(N4CCN(Cc5ccc6c(c5)OCO6)CC4)ncnc32)cc1, the “hERG current change (%, negative = inhibition) at 10uM” value rises from -20% to -12.4%.

First: CCCC1C2C(=O)N(c3ccccc3OCC)C(=O)C2ON1c1ccccc1 (stereo not shown)
Second: O=C(CCN1C(=O)[C@@H]2Cc3ccccc3CN2C1=O)N[C@@H](C(=O)O)c1ccccc1
The “hERG current change (%, negative = inhibition) at 10uM” value of the first is lower: 7.62% for the first, 14.2% for the second.

Compared with CC(C)(C)NC(=O)CN(C(=O)C(=O)Nc1ccc2c(c1)OCCO2)C1CCCC1, Cc1ccc(C)c(N2CCN(S(=O)(=O)c3ccc4c(c3)OCCO4)CC2)c1 is lower in “hERG current change (%, negative = inhibition) at 10uM” value: 8.51% for the first, 3.7% for the second.

First: COc1cc(OC)cc(C(C(=O)NC2CCCCC2)N(C(=O)c2ccno2)c2ccccc2)c1 (stereo not shown)
Second: COCCN(C(=O)c1csnn1)C(C(=O)NC1CCCCC1)c1ccccc1 (stereo not shown)
The “hERG current change (%, negative = inhibition) at 10uM” value of the first is higher: 9.79% for the first, 4.44% for the second.

Compared with Cn1c(O)c(C=NC2CC3CCC2(C)C3(C)C)c(=O)[nH]c1=O (stereo not shown), Cc1ccc(C)c(S(=O)(=O)N2CCCCC2CCNC(=O)C(=O)NCc2ccco2)c1 (stereo not shown) is lower in “hERG current change (%, negative = inhibition) at 10uM” value: -11.9% for the first, -21.8% for the second.

First: COCCNCC(=O)N1CCCCCC1.O=C(O)C(=O)O
Second: O=C(c1ccco1)N1CCN(C(=O)N2CCCCC2)CC1
The “hERG current change (%, negative = inhibition) at 10uM” value of the first is higher: -24.6% for the first, -25.1% for the second.

Going from Cc1ccc(CSc2nnc(-c3ccncc3)n2CC2CCCO2)cc1 (stereo not shown) to Cc1ccc(NC(=O)Cn2c(=O)c(C)nc3ccccc32)cc1, the “hERG current change (%, negative = inhibition) at 10uM” value rises from 0.73% to 14.1%.

Going from CCn1c(SCC(=O)Nc2ccc(C(C)=O)cc2)nc2nc3c(cc2c1=O)COC(C)(C)C3 to CCN(CC)CCN(C(=O)c1ccc(C(C)=O)cc1)c1nc2ccc(Cl)cc2s1.Cl, the “hERG current change (%, negative = inhibition) at 10uM” value falls from 13.8% to -30.2%.

First: O=C(c1ccc(Cl)c(S(=O)(=O)N2CCCCCC2)c1)N1CCOCC1
Second: O=C(/C=C/c1ccc([N+](=O)[O-])cc1)N1CCN(S(=O)(=O)c2cccs2)CC1
The “hERG current change (%, negative = inhibition) at 10uM” value of the first is higher: 5.32% for the first, -18.7% for the second.

First: CCOC(=O)c1cc(C(C)C)sc1NC(=O)COC(=O)c1nccnc1N
Second: CCOC(=O)C1CCN(C(=O)CCS(=O)(=O)c2ccc3c(c2)CCN3C(=O)CC)CC1
The “hERG current change (%, negative = inhibition) at 10uM” value of the first is lower: -20.9% for the first, 4.01% for the second.

Going from COc1ccc(OC)c(C2c3[nH]c4ccccc4c3C[C@H]3C(=O)N(CCCOC(C)C)CC(=O)N23)c1 (stereo partly shown) to CCOc1cc2[nH]c(=S)n(CCc3ccc(OC)c(OC)c3)c(=O)c2cc1OCC, the “hERG current change (%, negative = inhibition) at 10uM” value rises from -39.7% to -4.53%.

Compared with Cc1ccc(C(=O)NNC(=O)c2cc3cc4ccccc4nc3s2)cc1, Cc1csc(NC(=O)c2cnc3ccccc3n2)n1 is lower in “hERG current change (%, negative = inhibition) at 10uM” value: 1.36% for the first, -19% for the second.

Compared with Cc1ccc([N+](=O)[O-])cc1NC(=O)CSc1n[nH]c(-c2cccnc2)n1, CCC(CC)Nc1ccc(C(CC(N)=O)NC(=O)c2ccccc2)cc1[N+](=O)[O-] (stereo not shown) is higher in “hERG current change (%, negative = inhibition) at 10uM” value: -18.9% for the first, -4.38% for the second.

Going from CC(C)(C(=O)Nc1nccs1)c1ccccc1 to Cc1cccc(OCCCCNCc2ccccc2)c1.O=C(O)C(=O)O, the “hERG current change (%, negative = inhibition) at 10uM” value falls from -5.84% to -38.1%.

First: CC(C)NC(=O)c1c(O)c2cccc3c2n(c1=O)CCC3
Second: Cc1ccccc1C(=O)N1CCc2cc(-c3csc(NC(=O)CN4CCCC4)n3)ccc21
The “hERG current change (%, negative = inhibition) at 10uM” value of the first is higher: 15.9% for the first, 1.64% for the second.

Going from COCCn1nnnc1C(c1ccc2ncccc2c1)N1CCN(c2ccccc2F)CC1 (stereo not shown) to COc1ccc(Cl)cc1NC(=O)C1CC(c2c(F)cccc2Cl)=NO1 (stereo not shown), the “hERG current change (%, negative = inhibition) at 10uM” value rises from -19.4% to 4.38%.

Going from O=C(Cc1ccc(F)cc1)Nc1nc(-c2ccc(F)cc2)cs1 to CC(=O)Nc1cccc(Oc2ccc3c(c2)C(=O)N(CCC(=O)O)C3=O)c1, the “hERG current change (%, negative = inhibition) at 10uM” value falls from 32.8% to 9.5%.

In the case of Cc1ccc(NC(=O)C2=NNC(=O)CC2)cc1S(=O)(=O)Nc1ccc(SC(F)F)cc1, the “hERG current change (%, negative = inhibition) at 10uM” value was -15.9%.
